Assay [1] in a line: qHTS drug screen for cell cycle checkpoint inhibitors in PARPi-resistant BRCA-mutant ovarian cancer cell lines. (AID 1963452). The settings on record: PEO1/OlaR viability, CellTiter-Glo luminescence, 96 h. In outline:
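PEO1, PEO4 and PEO1/OlaR ovarian cancer cells, 600 per well, exposed 96 h at 37C to a dilution series. Viability read by CellTiter-Glo luminescence, normalized to DMSO and empty wells; activity summarized as Z-AUC.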
For orientation: qHTS replaces the single test concentration by a dilution series.

A short description of assay [2]: qHTS for identification of novel therapeutic agents for treatment of microphthalmiaassociated transcription factor (MiT) renal cell carcinoma (RCC) (AID 1963991). The settings on record: CellTiter-Glo, 48 h; for z-score: stronger effect = lower value. Put shortly: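 Curves over 11 concentrations were fitted to CellTiter-Glo luminescence, scaled between empty wells (0%) and DMSO (100%) viability. Cells were UOK109, UOK124 and UOK145 TFE3-fusion RCC lines at 500/well, exposed 48 hours at 37 C.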

The mark [3] stands for this setting: measured here: PEO1 parental viability.
Setting [4] is: TFE3-RCC UOK109 viability, measured here: UOK109 Z-AUC.
The mark [5] stands for this setting: TFE3-RCC viability, measured here: UOK124 Z-AUC.
[6] abbreviates: TFE3-RCC viability, measured here: UOK124 cell viability.
Setting [7] is: TFE3-RCC viability, measured here: UOK145 Z-AUC.
Where [8] appears, read: TFE3-RCC viability, measured here: UOK145 cell viability.

The list shows a part of the results. Shown are side measurements of this screen, not its main read-out; they come without a call. For part of these data: Most of these compounds were active or inconclusive in the main read-out, so they are no random draw. The note in brackets gives the kind of curve behind each potency; many fits are weak.
Tags describe the fitted curve by direction and shape.

For `Cc1ccc(NC(=O)c2cccc(C(C)(C)C#N)c2)cc1Nc1ccc2ncn(C)c(=O)c2c1`, the AC50 (in general, the concentration giving half of the maximal activity seen) in assay [1] (setting [3]) is 7.76 µM [falling, partial curve]; in assay [1] (measured here: PEO4 viability) it was 7.76 µM [falling, partial curve]; in assay [2] (setting [6]), 20.9 µM [falling, partial curve]; in assay [2] (setting [8]), 20.9 µM [falling, partial curve]. Moreover, the results for the z-score in assay [2] (setting [4]), in assay [2] (setting [5]) and in assay [2] (setting [7]) were -0.248, 0.123 and 0.129, respectively.
On to `CO[C@@H]1C(N(C)C(=O)c2ccccc2)C[C@H]2O[C@]1(C)n1c3ccccc3c3c4c(c5c6ccccc6n2c5c31)C(=O)NC4=O` (some centres undefined), for which the AC50 in assay [1] (setting [3]) is 24.5 µM [falling, single point]; in assay [1] (measured here: PEO4 viability) it was 13.8 µM [falling, partial curve]; in assay [2] (setting [6]), 3.32 µM [falling, full curve]; in assay [2] (setting [8]), 6.62 µM [falling, full curve]. Further, the z-score is -0.426 in assay [2] (setting [4]), -0.76 in assay [2] (setting [5]) and -0.433 in assay [2] (setting [7]).
`Cc1cnc(NC(=O)Nc2cc(Br)c(C)cc2OC[C@@H]2CNCCO2)cn1`: the AC50 in assay [1] (setting [3]) was 1.95 µM [falling, full curve]; in assay [1] (measured here: PEO4 viability), 1.95 µM [falling, full curve]; in assay [2] (setting [6]), 7.43 µM [falling, partial curve]; in assay [2] (setting [8]) it was 2.64 µM [falling, full curve]. For the same compound, the z-score was -0.275 in assay [2] (setting [4]), -0.694 in assay [2] (setting [5]) and -0.415 in assay [2] (setting [7]).
On to `Cc1cnc(Nc2cccc(CN3CCOCC3)c2)nc1Nc1cccc(S(=O)(=O)NC(C)(C)C)c1`, for which the half-maximal activity concentration (AC50) was 7.76 µM [falling, partial curve] in assay [1] (setting [3]); 1.55 µM [falling, full curve] in assay [1] (measured here: PEO4 viability); 10.5 µM [falling, partial curve] in assay [2] (setting [6]); 14.8 µM [falling, partial curve] in assay [2] (setting [8]). For the same compound, the z-score was -1.1 in assay [2] (setting [4]), -0.679 in assay [2] (setting [5]) and -0.652 in assay [2] (setting [7]).
In the case of `COc1cc(O)c2c(c1)C1OC1C[C@H](O)[C@H](O)C(=O)C=CC[C@H](C)OC2=O` (some centres undefined), the AC50 in assay [1] (setting [3]) is 11 µM [falling, partial curve]; in assay [1] (measured here: PEO4 viability), 3.09 µM [falling, full curve]; in assay [2] (setting [6]), 7.43 µM [falling, single point]; in assay [2] (setting [8]), 16.6 µM [falling, partial curve]. Also, the z-score in assay [2] (setting [4]) was -0.298; in assay [2] (setting [5]) it was -0.0178; in assay [2] (setting [7]), -0.36.
In the case of `CC[C@@H]([C@H](C)O)n1ncn(-c2ccc(N3CCN(c4ccc(OCC5CO[C@@](Cn6cncn6)(c6ccc(F)cc6F)C5)cc4)CC3)cc2)c1=O` (some centres undefined), the AC50 was 4.36 µM [falling, partial curve] in assay [1] (setting [3]); 21.9 µM [falling, single point] in assay [1] (measured here: PEO4 viability); 14.8 µM [falling, partial curve] in assay [2] (setting [6]); 20.9 µM [falling, partial curve] in assay [2] (setting [8]). Besides, the z-score is 0.0483 in assay [2] (setting [4]), -0.0344 in assay [2] (setting [5]) and 0.017 in assay [2] (setting [7]).
Take `COc1ccc(C2=N[C@H](c3ccc(Cl)cc3)[C@H](c3ccc(Cl)cc3)N2C(=O)N2CCNC(=O)C2)c(OC(C)C)c1`: the AC50 is 13.8 µM [falling, single point] in assay [1] (setting [3]); 13.8 µM [falling, single point] in assay [1] (measured here: PEO4 viability); 29.6 µM [falling, single point] in assay [2] (setting [6]); 20.9 µM [falling, partial curve] in assay [2] (setting [8]). Further, the z-score was -0.861 in assay [2] (setting [4]), -0.142 in assay [2] (setting [5]) and 0.757 in assay [2] (setting [7]).
With `Nc1nc(Nc2ccc(S(N)(=O)=O)cc2)nn1C(=O)c1c(F)cccc1F`, the AC50 is 4.9 µM [falling, full curve] in assay [1] (setting [3]); 3.89 µM [falling, full curve] in assay [1] (measured here: PEO4 viability); 7.43 µM [falling, full curve] in assay [2] (setting [6]); 11.8 µM [falling, full curve] in assay [2] (setting [8]). For the same compound, the z-score in assay [2] (setting [4]) is -0.545; in assay [2] (setting [5]), 0.117; in assay [2] (setting [7]) it was 0.344.
As to `CCNC(=O)c1noc(-c2cc(C(C)C)c(O)cc2O)c1-c1ccc(CN2CCOCC2)cc1`, the AC50 is 0.0436 µM [falling, full curve] in assay [1] (setting [3]); 0.123 µM [falling, full curve] in assay [1] (measured here: PEO4 viability); 0.0935 µM [falling, partial curve, poor fit] in assay [2] (setting [6]); 0.264 µM [falling, full curve] in assay [2] (setting [8]). The z-score is -0.721 in assay [2] (setting [4]), -1.72 in assay [2] (setting [5]) and -1.47 in assay [2] (setting [7]).
For `c1ccc(CNc2nc(NCc3ccccc3)c3ccccc3n2)cc1`, the AC50 in assay [1] (setting [3]) was 19.5 µM [falling, partial curve]; in assay [1] (measured here: PEO4 viability) it was 4.36 µM [falling, full curve]; in assay [2] (setting [6]) it was 26.4 µM [falling, partial curve]; in assay [2] (setting [8]), 14.8 µM [falling, partial curve]. In addition, the z-score in assay [2] (setting [4]) is -0.312; in assay [2] (setting [5]), -0.0997; in assay [2] (setting [7]) it was -0.306.
In the case of `CN(c1ncccc1CNc1nc(Nc2ccc3c(c2)CC(=O)N3)ncc1C(F)(F)F)S(C)(=O)=O`, the AC50 is 4.9 µM [falling, partial curve] in assay [1] (setting [3]); 5.49 µM [falling, partial curve] in assay [1] (measured here: PEO4 viability); 6.62 µM [falling, full curve] in assay [2] (setting [6]); 16.6 µM [falling, partial curve] in assay [2] (setting [8]). For the same compound, the z-score in assay [2] (setting [4]) was -0.177; in assay [2] (setting [5]), -0.0872; in assay [2] (setting [7]), -0.199.
As for `CC(C)C[C@@H](C(=O)N[C@H](C(=O)OC1CCCC1)c1ccccc1)[C@H](O)C(=O)NO`, the AC50 was 17.4 µM [falling, partial curve, poor fit] in assay [1] (setting [3]); 7.76 µM [falling, partial curve] in assay [1] (measured here: PEO4 viability); 16.6 µM [falling, partial curve] in assay [2] (setting [6]); 23.5 µM [falling, partial curve, poor fit] in assay [2] (setting [8]). Also, the z-score was -0.107 in assay [2] (setting [4]), 0.683 in assay [2] (setting [5]) and 0.033 in assay [2] (setting [7]).
